{
  "source": "PubChem BioAssay AID1345082",
  "about": "(National Center for Advancing Translational Sciences (NCATS), 2018)",
  "note": "About 4,000 (4.3%) of roughly 94,000 compounds were called active. Inconclusive means that the source gave no clear call. Such entries were picked first, then a sample of the others. Calls come from the whole dose curve; as a rule, active = well fitted inhibition curve with a large enough effect; inconclusive = small, poorly fitted or top-dose-only effect; inactive = no such curve, though single readings can be large or run the other way. A potency beside an inconclusive call is a rough fit, not a confirmed value. % is set by controls: 0 for no effect and ±100 for the full control effect; potency is the fitted concentration of half-maximal effect; tags give direction and shape of the fitted curve.",
  "data": [
    {"assay": "Cytotoxic Profiling in NIH 3T3 Cell Line of Diverse Libraries Using Quantitative High-Throughput Screening; note: nearly all actives have a fitted effect of over 55% in size", "conditions": "NIH 3T3 viability, CellTiter-Glo ATP luminescence, 48-72 h; activity change, negative = cytotoxicity: at 96.7 µM (top of the series); series mostly up to 96.7 µM", "how_it_was_run": "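Cytotoxicity is measured as loss of cellular ATP: NIH 3T3 cells (400/well) are exposed to compound for 48 or 72 hr at 37 °C, then CellTiter-Glo luminescence is imaged after 10 min at room temperature.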", "values": [
      {"smiles": "CC1=C[C@@H](CNC(=O)c2ccncc2)[C@H](C(C)C)C[C@H]1Cc1nnc(-c2ccncc2)o1", "Potency": "inconclusive: 35.5 µM [inhibitor, partial curve, poor fit]"},
      {"smiles": "Cc1nn(-c2ccc(C(C)(C)C)cc2)c(C)c1[C@@H]1C=C[C@@H](NC(=O)CC(C)(C)CC(=O)O)C1", "Potency": "inconclusive: 89.1 µM [inhibitor, single point]"},
      {"smiles": "COC(=O)[C@H](Cc1ccc(OC)cc1)NC(=O)[C@H]1CN(C(=O)c2ccc(N(C)C)cc2)CCN1C(=O)C1CCCCC1", "Potency": "inconclusive: 50.1 µM [inhibitor, partial curve, poor fit]"},
      {"smiles": "O=C(CC[C@H]1NC(=O)c2ccccc2NC1=O)Nc1nnc(Cc2ccccc2)s1", "Potency": "inconclusive: 35.5 µM [inhibitor, single point]"},
      {"smiles": "O=C(c1ccoc1)N1CC[C@@H](c2ccc3ccccc3c2)[C@H](O)C1", "Potency": "inconclusive: 89.1 µM [inhibitor, single point]"},
      {"smiles": "COc1ccc(CN2Cc3[nH]nc(-c4ccc(N5CCN(C)CC5)cc4)c3CC2=O)cc1", "Potency": "active: 79.4 µM"},
      {"smiles": "CC(=O)Oc1c(-c2ccc(NC(=O)c3ccco3)cc2)c(-c2cccc(F)c2)nn1-c1ccc(C)cc1", "Potency": "inconclusive: 44.7 µM [inhibitor, partial curve, poor fit]"},
      {"smiles": "O=C1[C@@H]2C[C@@H](CN2Cc2cnc3ccccc3c2)Oc2ccccc2N1CC1CC1", "Potency": "inconclusive: 70.8 µM [inhibitor, full curve, poor fit]"},
      {"smiles": "CCc1nc2c(c(-c3ccc(Cl)cc3)n1)CCN(Cc1ccsc1)CC2", "Potency": "inconclusive: 50.1 µM [inhibitor, partial curve, poor fit]"},
      {"smiles": "CCCS(=O)(=O)N1CCC(N2C(=O)[C@H](OCCOC)[C@@H]2c2ccncc2)CC1", "activity change, negative = cytotoxicity": "inactive: -19.4%"},
      {"smiles": "COCCOc1ccc2c(n1)CCN(C(=O)c1ccc(C(C)C)cc1)C2", "Potency": "inconclusive: 39.8 µM [inhibitor, partial curve]"},
      {"smiles": "Cc1cc(CN2CC[C@@H]3CN(S(C)(=O)=O)[C@@H]3C2)n(C)n1", "activity change, negative = cytotoxicity": "inactive: -7.17%"},
      {"smiles": "O=C(NCc1cccnc1)c1nc(-c2ccc(Cl)cc2Cl)c2ccccn12", "Potency": "inconclusive: 44.7 µM [inhibitor, partial curve, poor fit]"},
      {"smiles": "CN(C)C(=O)c1cn2cc(-c3ccc(F)cc3)sc2n1", "activity change, negative = cytotoxicity": "inactive: -17.9% [at 138 µM]"},
      {"smiles": "C#CCNC(=O)c1cc(-c2cccc(OC)c2)nc2c1cnn2C", "Potency": "inconclusive: 56.2 µM [inhibitor, partial curve, poor fit]"},
      {"smiles": "NS(=O)(=O)c1ccc(CNC(=O)Cn2nc3c(cc2=O)CCCC3)cc1", "activity change, negative = cytotoxicity": "inactive: -0.213%"}
    ]}
  ]
}
